Test results from the supplement of paper PMC12067230.
Single values of this set are uncertain.

Assay: amyloid nucleation score relative to library mode (yeast Sup35 reporter selection) (log enrichment difference); higher = more amyloid nucleation; sequences are the first 22 residues of the Bri2 peptide extended by up to 12 random residues
Settings: random library (experiment): 1;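 active = nucleation score significantly above 0 at FDR 0.05; inactive = not significantly above 0 or absent from output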
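Also: [psi-pin-] Saccharomyces cerevisiae expressing SupN fusions, induced by 100 µM Cu2SO4, selected 7 d at 30 °C without adenine and uracil, scored by deep sequencing of output versus input.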

Sequence	amyloid nucleation score
EASNCFAIRHFENKFAVETLICGEGTSFGGCGGR	inactive
EASNCFAIRHFENKFAVETLICFMLSASVGGDVP	inactive
EASNCFAIRHFENKFAVETLICCVGSFRVRDAVW	8.27
EASNCFAIRHFENKFAVETLICAEVQVG	inactive
EASNCFAIRHFENKFAVETLICLMRAVRPPYGCE	inactive
EASNCFAIRHFENKFAVETLICLIGKLGGRYYAS	inactive
EASNCFAIRHFENKFAVETLICGSAGRPEVCRTE	inactive
EASNCFAIRHFENKFAVETLICRKQWAVQAHLAA	inactive
EASNCFAIRHFENKFAVETLICFNSCQQEWLDES	4.78
EASNCFAIRHFENKFAVETLICAIEI	-0.399
EASNCFAIRHFENKFAVETLICTL	inactive
EASNCFAIRHFENKFAVETLICLWVKAVSQWYAP	inactive
EASNCFAIRHFENKFAVETLICRYRSFCFWDAA	inactive
EASNCFAIRHFENKFAVETLICDALAASYSGSPK	inactive
EASNCFAIRHFENKFAVETLICPLVQGQAEGWEN	inactive
EASNCFAIRHFENKFAVETLICGMYRSCAMNSRS	2.32
EASNCFAIRHFENKFAVETLICYVGSLFLHDRLL	inactive
EASNCFAIRHFENKFAVETLICHLADECIYEVTA	inactive
EASNCFAIRHFENKFAVETLICMVMTTFSLGAAR	inactive
EASNCFAIRHFENKFAVETLICVVQLRMTHVNVL	-0.25
EASNCFAIRHFENKFAVETLICHQYLLSEFWFKV	inactive
EASNCFAIRHFENKFAVETLICCSYG	7.24
EASNCFAIRHFENKFAVETLICAFFTRCM	inactive
EASNCFAIRHFENKFAVETLICPSGAMREDVELY	-0.551
EASNCFAIRHFENKFAVETLICMPKAGRFLEGAR	inactive

Sequence	amyloid nucleation score
EASNCFAIRHFENKFAVETLICVRYWHSRGSKRG	inactive
EASNCFAIRHFENKFAVETLICTRNPEIKVLLCM	inactive
EASNCFAIRHFENKFAVETLICECKPVRCTALRG	4.49
EASNCFAIRHFENKFAVETLICRLSVVYDRVDLA	1.93
EASNCFAIRHFENKFAVETLICHRVPMGQYTPAA	inactive
EASNCFAIRHFENKFAVETLICMMCMNSATGVWN	8
EASNCFAIRHFENKFAVETLICLFRACS	0.636
EASNCFAIRHFENKFAVETLICVRSSTKNDTPLV	0.165
EASNCFAIRHFENKFAVETLICGTAARYR	1.84
EASNCFAIRHFENKFAVETLICMPDKMVCCVVSS	inactive
EASNCFAIRHFENKFAVETLICLALPERWSGCEC	7.7
EASNCFAIRHFENKFAVETLICNHVGSPRRGRRA	inactive
EASNCFAIRHFENKFAVETLICEDNKTRIALMVG	0.482
EASNCFAIRHFENKFAVETLICYVKELCVVNCLE	inactive
EASNCFAIRHFENKFAVETLICEARCLRA	3.75
EASNCFAIRHFENKFAVETLICVMVMICQRAVTW	inactive
EASNCFAIRHFENKFAVETLICICSFSVL	inactive
EASNCFAIRHFENKFAVETLICDTRRLGGRGVAR	inactive
EASNCFAIRHFENKFAVETLICRRWETLV	0.573
EASNCFAIRHFENKFAVETLICKVLVARRSMYFR	inactive
EASNCFAIRHFENKFAVETLICDVEINCWCRLKR	4.35
EASNCFAIRHFENKFAVETLICGSRFDR	-0.648
EASNCFAIRHFENKFAVETLICLAFRWPAKLLLI	inactive
EASNCFAIRHFENKFAVETLICCTVARLLAESGV	2.53

Same assay, conditions: random library (experiment): 2

Sequence	amyloid nucleation score
EASNCFAIRHFENKFAVETLICLEMLKGPMYAVT	1.48
EASNCFAIRHFENKFAVETLICCRVKL	inactive
EASNCFAIRHFENKFAVETLICTVLSLCEWQSWH	4.25
EASNCFAIRHFENKFAVETLICIENHLHVEVSST	5.91
EASNCFAIRHFENKFAVETLICVILHMNITSFDW	inactive
EASNCFAIRHFENKFAVETLICAMFWKLMKRVSI	inactive
EASNCFAIRHFENKFAVETLICVMFFDLRRKYSS	inactive
EASNCFAIRHFENKFAVETLICYLRSDITGSLVS	inactive
EASNCFAIRHFENKFAVETLICIACIRNPFYSSD	6.68
EASNCFAIRHFENKFAVETLICRSWLFGHNTFFR	-0.157
EASNCFAIRHFENKFAVETLICRDD	inactive
EASNCFAIRHFENKFAVETLICTYMKSVVVTVLM	0.827
EASNCFAIRHFENKFAVETLICVLCCNHDNCGVY	8.7
EASNCFAIRHFENKFAVETLICCCMCLFRFVTVA	3.51
EASNCFAIRHFENKFAVETLICLTRSF	inactive
EASNCFAIRHFENKFAVETLICEMNTYDMGIY	inactive
EASNCFAIRHFENKFAVETLICVSRCDLQ	inactive
EASNCFAIRHFENKFAVETLICGINYYCVCWGVT	inactive
EASNCFAIRHFENKFAVETLICVCSWFNYVSSLG	2.65
EASNCFAIRHFENKFAVETLICFVCFVCWCSVCF	-0.0149
EASNCFAIRHFENKFAVETLICTRI	inactive
EASNCFAIRHFENKFAVETLICFLEFFFPIVDSV	inactive
EASNCFAIRHFENKFAVETLICYRARTCHYVTMG	inactive
EASNCFAIRHFENKFAVETLICVGWCDHWARVVG	inactive
EASNCFAIRHFENKFAVETLICCKKSSCIRCRGR	inactive
EASNCFAIRHFENKFAVETLICWYFLMYHCKLGE	inactive
EASNCFAIRHFENKFAVETLICLT	inactive

Same assay, conditions: random library (experiment): 3

Sequence	amyloid nucleation score
EASNCFAIRHFENKFAVETLICHIASLWLSQRRG	inactive
EASNCFAIRHFENKFAVETLICAWVRIRNALRAA	inactive
EASNCFAIRHFENKFAVETLICRMHWGRWKKCMW	inactive
EASNCFAIRHFENKFAVETLICVEEVVQRAAHDG	inactive
EASNCFAIRHFENKFAVETLICLSMCMTSNQVDS	7.95
EASNCFAIRHFENKFAVETLICGCMVMWCIVSD	inactive
EASNCFAIRHFENKFAVETLICKRSLGKRRVRPG	1.3
EASNCFAIRHFENKFAVETLICAYWCHVY	inactive
EASNCFAIRHFENKFAVETLICLGIRAYRRWMRA	inactive
EASNCFAIRHFENKFAVETLICPSEECD	inactive
EASNCFAIRHFENKFAVETLICLWCFDG	7.12
EASNCFAIRHFENKFAVETLICESDNGCQSVPIV	inactive
EASNCFAIRHFENKFAVETLICCERVGSLICSCV	0
EASNCFAIRHFENKFAVETLICVVATGEWVLGSW	inactive
EASNCFAIRHFENKFAVETLICGMCSSQWITLWA	7.51
EASNCFAIRHFENKFAVETLICWDELLYIGTVVL	inactive
EASNCFAIRHFENKFAVETLICLKICAASGELIA	inactive
EASNCFAIRHFENKFAVETLICFVMLMNRGWKPY	5.59
EASNCFAIRHFENKFAVETLICCAGNRVYAAMRM	4.9
EASNCFAIRHFENKFAVETLICYWGSWK	2.38
EASNCFAIRHFENKFAVETLICDVGRRCRRVDGR	-0.00897
EASNCFAIRHFENKFAVETLICFTWLPCRRPCFM	1.94

Sequence	amyloid nucleation score
EASNCFAIRHFENKFAVETLICWGAIFSC	7.06
EASNCFAIRHFENKFAVETLICATRRMVHDKHVD	inactive
EASNCFAIRHFENKFAVETLICNCCWCPRHRGSC	8.21
EASNCFAIRHFENKFAVETLICIMSSHT	2.75
EASNCFAIRHFENKFAVETLICMRRRR	inactive
EASNCFAIRHFENKFAVETLICMTAVGISDRT	4.7
EASNCFAIRHFENKFAVETLICEGVSPSCGAPAG	inactive
EASNCFAIRHFENKFAVETLICLDVVYL	2.51
EASNCFAIRHFENKFAVETLICPMPVSGMGRTRG	inactive
EASNCFAIRHFENKFAVETLICGFSSRFIPLDGS	inactive
EASNCFAIRHFENKFAVETLICFDATIIGMSNDG	8.44
EASNCFAIRHFENKFAVETLICVWR	inactive
EASNCFAIRHFENKFAVETLICESAWSFRKWSIV	inactive
EASNCFAIRHFENKFAVETLICWAALRHCADTPK	inactive
EASNCFAIRHFENKFAVETLICFCSP	6.72
EASNCFAIRHFENKFAVETLICMDV	inactive
EASNCFAIRHFENKFAVETLICGISITMSQCRVV	inactive
EASNCFAIRHFENKFAVETLICLAWKLREHGDRS	inactive
EASNCFAIRHFENKFAVETLICYYSLFC	inactive
EASNCFAIRHFENKFAVETLICQVQPLPRVLRLG	inactive
EASNCFAIRHFENKFAVETLICCMGFTRCLCL	4.72
EASNCFAIRHFENKFAVETLICMMGVCAVGHFWG	3.44
